Assay results from PubChem BioAssay AID1458 (National Center for Advancing Translational Sciences (NCATS), 2008).
About 5,900 (2.8%) of roughly 210,000 compounds were called active. This list was built around the results that the source calls inconclusive (neither active nor inactive); the mix of calls is not that of the screen. Calls come from the whole dose curve; as a rule, active = well fitted activation curve with a large enough effect; inconclusive = small, poorly fitted or top-dose-only effect; inactive = no such curve, though single readings can be large or run the other way. A potency beside an inconclusive call is a rough fit, not a confirmed value.
Potency is the fitted concentration of half-maximal effect; tags give direction and shape of the fitted curve.

Test: qHTS Assay for Enhancers of SMN2 Splice Variant Expression; note: nearly all actives have a fitted effect of over 55% in size; for activity change, positive = activation: % of control where 0% means no effect
Conditions: HEK293 SMN2-luciferase splicing reporter, luminescence, 30-36 h; activity change, positive = activation: at 46.1 µM (top of the series)
In short: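 HEK293 cells carry an SMN2 […]–luciferase reporter in which exon 7 inclusion puts luciferase in frame. Cells were plated 10-12 h before compound addition, then incubated 30-36 h at 37C. ONE-Glo luminescence was read; sodium butyrate at 4.5 mM final served as control.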
For `NC(CCl)=N[C@H]1CN2CCC1CC2`, the activity change, positive = activation was inactive: 9.25% [at 9.22 µM].
For `CC(C)n1c(/C=C\[C@@H](O)C[C@@H](O)CC(=O)O)c(-c2ccc(F)cc2)c2ccccc21`, the Potency was inconclusive: 12.6 µM [activator, single point].
With `Nc1ccc(C2(c3ccc(N)cc3)c3ccccc3-c3ccccc32)cc1` the Potency was inconclusive: 0.112 µM [activator, full curve, poor fit].
With `C[C@@H]1O[C@@H](O[C@H]2C[C@@H](O)[C@]3(CO)[C@H]4[C@H](O)C[C@]5(C)[C@@H](C6COC(=O)C6)CC[C@]5(O)[C@@H]4CC[C@]3(O)C2)[C@H](O)[C@H](O)[C@H]1O` (stereo partly specified) the Potency was active: 0.794 µM.
In the case of `Cc1ccc2nc3c(cc2c1)CC1(C(=O)N(C)C(=O)N(C)C1=O)C1CCCCN31` (stereo unspecified), the Potency is reported as inconclusive: 14.1 µM [activator, partial curve, poor fit].
For `CCOC(=O)C1CCN(Cc2c(F)cccc2Cl)CC1`, the Potency was inconclusive: 10 µM [activator, single point].
For `COc1ccc(OC)c(N2C(=O)NC(=O)/C(=C/c3ccc([N+](=O)[O-])s3)C2=O)c1`, the Potency was inconclusive: 5.62 µM [activator, single point].
For `N#Cc1cccc(NC(=O)CSc2nc3c(cc2C#N)N2CCC3CC2)c1`, the Potency was inconclusive: 3.16 µM [activator, single point].
For `CCCCCCCCCCCCCC(=O)OC1C(C)[C@@]2(O)C(C=C(CO)C[C@]3(O)C(=O)C(C)=C[C@H]23)[C@@H]2C(C)(C)[C@]12OC(C)=O` (stereo partly specified), the Potency was inconclusive: 0.0158 µM [activator, full curve].
With `S=C(S)N1CCCC1` the Potency was inconclusive: 14.1 µM [activator, full curve].
With `CCCC(C)C1C(C#N)=C(N)Oc2c1c(=O)oc1ccccc21` (stereo unspecified) the Potency was inconclusive: 0.0891 µM [activator, full curve, poor fit].
With `O=C(O)CNC(=O)c1ccc([As](=O)(O)O)cc1` the activity change, positive = activation was inactive: -12.5% [at 9.22 µM].
For `O=C1NC(=O)N(c2ccc(F)cc2)C(=O)/C1=C/c1ccsc1`, the Potency was “inactive”.
For `Cc1noc(C(=O)Nc2sc3c(c2C#N)CCC3)c1Cl`, the Potency was “inactive”.
For `CN1C(=O)C(=Cc2ccccc2OCc2ccccc2Cl)C(=O)N(C)C1=O`, the Potency was “inactive”.
For `S=P(C1CCCCC1)(C1CCCCC1)[C@H](c1cccnc1)N1CCCC1`, the activity change, positive = activation was inactive: -3.85% [at 9.22 µM].
In the case of `O=C1CN=C(c2ccc(Br)cc2)c2oc3ccccc3c2N1`, the Potency is reported as inconclusive: 11.2 µM [activator, single point].
With `COc1ccc(OC)c(NC(=O)Cn2cc(C(=O)c3ccccc3)c3ccccc32)c1` the Potency was inconclusive: 35.5 µM [activator, single point].
With `O=c1[nH]c(N2CCN(Cc3ccc4c(c3)OCO4)CC2)nc2c1CCC2` the Potency was inconclusive: 0.1 µM [activator, full curve, poor fit].
In the case of `CSc1ccc(C(=O)C(C)(C)N2CCOCC2)cc1`, the Potency is reported as inconclusive: 0.251 µM [activator, full curve].
With `COc1cccc(-c2nc3ccc(N4CCN(C)CC4)cc3[nH]2)c1` the Potency was inconclusive: 35.5 µM [activator, single point].
With `COc1ccccc1-n1c(O)c(C=Nc2c(C)n(C)n(-c3ccccc3)c2=O)c(=O)[nH]c1=O` the Potency was inconclusive: 39.8 µM [activator, partial curve, poor fit].
With `Nc1c(C(=O)NCCc2ccccc2)c2nc3ccccc3nc2n1CCN1CCOCC1` the Potency was “inactive”.
In the case of `Cn1c(O)c(C=NC2C(=O)C3(C)CCC2C3(C)C)c(=O)n(C)c1=O` (stereo unspecified), the Potency is reported as inconclusive: 0.891 µM [activator, full curve, poor fit].
In the case of `COc1ccc(C(=O)Nc2sc3c(c2C(=O)O)CC(C)(C)OC3)cc1`, the Potency is reported as “inactive”.
For `CCN(CC)C(=O)Oc1ccc2ccccc2c1Cl`, the Potency was inconclusive: 22.4 µM [activator, single point].
In the case of `Nc1ccc2c(c1)Cc1ccccc1-2`, the Potency is reported as inconclusive: 14.1 µM [activator, partial curve, poor fit].
In the case of `CN1CCC(n2nccc2N)CC1`, the Potency is reported as inconclusive: 3.98 µM [activator, single point].
With `CCOc1ccc(OCC)c(NC(=O)CN2CCN(c3ccc(C)cc3C)CC2)c1` the Potency was inconclusive: 22.4 µM [activator, single point].
For `c1ccc(C2NCc3ccccc3-n3cccc32)cc1` (stereo unspecified), the Potency was inconclusive: 14.1 µM [activator, partial curve, poor fit].
In the case of `O=C(O)c1cc[c]([Hg][S]c2ncnc3nc[nH]c23)cc1`, the activity change, positive = activation is reported as inactive: -26.7% [at 9.22 µM].
For `COc1cc(/C=C/[N+](=O)[O-])ccc1O`, the Potency was inconclusive: 35.5 µM [activator, single point].
With `O=c1c2ccccc2nc(-c2ccccc2)n1-n1cccc1` the Potency was inconclusive: 15.8 µM [activator, single point].
For `COC(=O)C12CC3=CCC4C(=O)N(c5ccccc5)C(=O)C4C3Cc3ccccc3[C@@H]1CNC2=O` (stereo partly specified), the Potency was “inactive”.
In the case of `Cc1ccc(-c2cc(C(F)(F)F)n3nc(C(=O)Nc4c(C)n(C)n(-c5ccccc5)c4=O)cc3n2)cc1`, the Potency is reported as inconclusive: 1.58 µM [activator, partial curve, poor fit].
In the case of `Cc1ccc(-c2nn(Cc3ccccc3)cc2C=O)cc1`, the Potency is reported as inconclusive: 12.6 µM [activator, single point].
With `CCCCCCCCCC[Si](C)(C)CCC(=O)NC(Cc1ccc(C)cc1)c1ccccc1` (stereo unspecified) the Potency was inconclusive: 0.0032 µM [activator, full curve, poor fit].
In the case of `O=C(N/N=C/c1c(O)n(C2CC2)c(=S)[nH]c1=O)c1ccccc1O`, the Potency is reported as inconclusive: 17.8 µM [activator, single point].
With `COCc1[nH]nc2c1C(c1ccccc1F)C(C#N)=C(N)O2` (stereo unspecified) the Potency was inconclusive: 35.5 µM [activator, single point].
In the case of `CCCCn1c(O)c(C(C)=NC(C)c2ccccc2)c(=O)[nH]c1=O` (stereo unspecified), the Potency is reported as inconclusive: 0.1 µM [activator, full curve, poor fit].
For `CN(C)CCN(C)CCc1ccc(Cl)c(Cl)c1`, the Potency was “inactive”.
